# According to the supplement of paper PMC3334620:
# The full ranking holds about 33,000 sequences; the median of “E-score (-0.5 to 0.5)” is about -0.013, and the highest 2% start at about 0.3. The list shows a part of the results.
# Molecular target: T1, Msn1 (UniProt P22148)
# T1 sequence: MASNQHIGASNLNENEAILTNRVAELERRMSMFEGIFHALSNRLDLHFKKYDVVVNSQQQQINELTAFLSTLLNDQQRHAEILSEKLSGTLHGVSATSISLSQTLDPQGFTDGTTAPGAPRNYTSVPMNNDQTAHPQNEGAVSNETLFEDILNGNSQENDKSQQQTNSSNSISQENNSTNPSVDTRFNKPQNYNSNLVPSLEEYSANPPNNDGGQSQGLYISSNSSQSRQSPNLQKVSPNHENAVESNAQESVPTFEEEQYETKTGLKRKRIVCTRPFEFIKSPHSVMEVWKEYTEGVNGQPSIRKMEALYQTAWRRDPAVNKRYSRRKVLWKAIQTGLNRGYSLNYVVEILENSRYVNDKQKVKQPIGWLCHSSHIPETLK
# Test: PBM E-score (8-mer binding enrichment) (E-score (-0.5 to 0.5)); higher = stronger / more preferred TF binding; most listed sequences are background and not binding sites
# Settings: protein concentration: 200 nM; construct: GST-full length
# In short: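 Yeast transcription factors carrying a GST tag, as full-length proteins or DNA-binding domains, were produced by PURExpress in vitro transcription/translation. About 100-200 nM protein was applied to universal all-10-mer Agilent arrays, double-stranded by primer extension on fresh or once-stripped slides. Bound protein was detected with fluorescent anti-GST, and scans were normalised with masliner. The Universal PBM Analysis Suite gave each ungapped eight-base word, pooled with its reverse complement, an E-score, a modified Wilcoxon-Mann-Whitney statistic.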
row,Sequence,PBM E-score
1,CGACTTCA,0.0948
2,ACTTTTGA,0.208
3,ACCATCGC,0.076
4,GGAGAGTA,-0.192
5,CACTTATA,0.0245
6,TCTTAGAA,0.297
7,CTGCCAGC,-0.155
8,CCAGAGTA,-0.142
9,ACTGCAAG,-0.0394
10,AATAGCCG,0.00296
11,CATTGTTC,-0.00315
12,GCTATTGA,-0.0472
13,AAAGTGCC,0.00184
14,ACAGTGCA,-0.0342
15,CACGGATA,0.173
16,ACTTCATA,-0.0395
17,CTGAGGTA,-0.0788
18,CACTAAGG,-0.017
19,ACACATAT,0.155
20,CAATGACC,-0.0865
21,GCGTGATA,-0.0404
22,GCGTGTTA,-0.143

row,Sequence,PBM E-score
1,AAACCGAA,-0.00034
2,CCAAATTA,0.193
3,CCCTAACG,-0.00597
4,CCACTTTA,-0.0486
5,AACTTTGC,-0.0347
6,CGAGTTTA,0.0699
7,GTTGCTTA,-0.0221
8,AACATCCG,0.117
9,ACTTTGCG,0.0123
10,ATGAGCAG,-0.0867
11,ACCATCCG,-0.0648
12,TCAGCTGA,0.232
13,ATGCCGGG,-0.0587
14,CCTACACA,-0.00332
15,ACCCATCG,-0.0746
16,AATTATAC,0.172
17,AAAAGAGA,0.0723
18,AGACAACG,0.134
19,CGGATGAG,-0.138
20,ACGGTAGA,-0.158
21,ATTTGCCA,0.0422
22,AGATAACT,0.0107

row,Sequence,PBM E-score
1,TCTCACCA,-0.00173
2,GCGGATCA,-0.116
3,CATATGCC,0.00819
4,AAAATTTG,0.16
5,GGTGCGTA,-0.225
6,ATGGTGTA,-0.117
7,GGAGCACA,-0.0444
8,AGCGCTCC,-0.0666
9,ACCGCAAT,0.113
10,CATCTTGC,0.0746
11,CCACAGCA,-0.0336
12,ATGCTAAA,0.131
13,CAAAAATC,0.163
14,AGCGTAAA,0.0473
15,AACACGCG,-0.0423
16,GTAACCGA,-0.00145
17,ATGAAGTG,-0.112
18,CTGAGAGA,-0.0585
19,ATCAGTGC,0.0894
20,ATGTACGA,0.215
21,CAGGAACG,0.0662
22,AAAAGCGT,0.0619

row,Sequence,PBM E-score
1,AAGCTATC,0.0462
2,GCCATGAC,0.00759
3,GTAATTCA,0.052
4,ACCTCCAG,-0.0741
5,CGACAGGC,-0.152
6,ACGGGTAG,-0.0737
7,AGGCCCCC,-0.403
8,TAAGTCGA,0.0435
9,GTTCGATA,0.1
10,AATCCCCG,-0.0127
11,ATCCGGGC,-0.0537
12,AAAGGTCC,0.133
13,AGAGAGTG,-0.169
14,ACCTTGGA,-0.117
15,GCTTTTTA,0.0345
16,ACTTATGA,0.187
17,CTGGATAA,-0.0534
18,ACGTGAGA,-0.163
19,CTAGTGTC,0.148
20,AATTAATT,0.168
